# In PubChem BioAssay AID1508624 (National Center for Advancing Translational Sciences (NCATS), 2021):
# Screen size: about 48,000 compounds; about 120 (0.25%) were called active. Not shown: some 4% with an inconclusive outcome. Calls come from the whole dose curve; as a rule, active = well fitted activation curve with a large enough effect; inconclusive = small, poorly fitted or top-dose-only effect, or another doubt; inactive = no such curve, though single readings can be large or run the other way. The list shows a part of the results.
# Assay: Primary qHTS for Identification of Small Molecule Activators of Huntingtin-Antisense Promoter Activity; note: nearly all actives have a fitted effect of over 55% in size
# Settings: HEK293 HTT-AS promoter firefly luciferase reporter, 24 h; series mostly up to 57.5 µM; activity change, positive = activation: at the top concentration
# Method in brief: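 HEK293 luciferase promoter-reporter cells (2,500/well) plated 24 h, then compounds added at up to 57.5 uM final for 24 h at 37 °C. Firefly luminescence by Dual-Glo, normalized to vehicle (0%) and zero RLU (-100%).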
row,SMILES,"activity change, positive = activation"
1,COc1ccc(-c2c(C)nn3c4c(cnc23)C(=O)CC(c2ccc(C)cc2)C4)cc1 (stereo not drawn),inactive: -13.5%
2,COc1ccc(-c2nn(C)c3sc(C(=O)N4CCN(c5cccc(C)c5C)CC4)cc23)cc1OC,inactive: 18.2%
3,Cc1cc(Br)ccc1NC(=O)c1cc2c(s1)-c1ccccc1SC2,inactive: -25.3%
4,O=C(CCCn1c(=O)c2cccn2c2cccnc21)NCCc1ccc(Cl)cc1,inactive: -15.7%
5,CCOC(=O)c1ccccc1NC(=O)CN(c1ccccc1OC)S(=O)(=O)c1ccc(C)cc1,inactive: -7.56%
6,COc1ccc(CN2C(=O)C(NC(=O)c3ccc(C)cc3)(C(F)(F)F)N=C2c2ccccc2)cc1 (stereo not drawn),inactive: -25.4%
7,COc1ccccc1NC(=O)CSc1nc2c(oc3ccccc32)c(=O)n1-c1ccc(C)cc1,inactive: -12.5%
8,CCOC(=O)N1CCc2c(sc3c2c(=O)n(-c2ccc(Cl)cc2)c(=O)n3CC(=O)c2ccc(F)cc2)C1,inactive: -14.6%
9,COc1ccc(NS(=O)(=O)c2nnc(NC(=O)c3ccccc3F)s2)cc1,inactive: 5.19%
10,COc1ccc(-n2ccnc(NCCc3ccc(S(N)(=O)=O)cc3)c2=O)cc1,inactive: -22.4%
11,COc1cc(/C=C/c2nc(C#N)c(NC3CCCCC3)o2)cc(OC)c1OC,inactive: -27.4%
12,O=C(/C=C/c1cn(CC(O)CN2CCCCCC2)c2ccccc12)c1ccccc1 (stereo not drawn),inactive: -14.7%
13,Cc1ccc(CNc2nc3c(S(=O)(=O)c4ccccc4)nnn3c3ccsc23)cc1,inactive: -3.93%
14,Cc1ccc(C)c(NC(=O)CSc2cn(CC(=O)N3CCCC3)c3ccccc23)c1,inactive: -25.6%
15,CCCN1C(=O)C(NC(=O)c2ccccc2OC)(C(F)(F)F)C(C(=O)OC)=C1C (stereo not drawn),"inactive: 7.24% [at 11.5 µM, percent change from vehicle, -100% = no light]"
16,CCOc1ccc(NC(=O)Cc2csc(COc3cccc(C)c3)n2)cc1,inactive: -0.799%
17,CCOc1ccccc1C1C(C(=O)Nc2ccccc2OC)=C(C)Nc2nc3ccccc3n21 (stereo not drawn),inactive: -20.3%
18,Cc1ccc2nc(NC(=O)c3cc(=O)c4cc(C)c(C)cc4o3)sc2c1,inactive: 0.442%
19,CSc1ccc(CNC(=O)CCn2ccc3cc(S(=O)(=O)N4CCCC4)ccc32)cc1,inactive: -27.3%
20,CCOc1ccc(NC(=O)Cn2c(C)ccc(C#N)c2=O)cc1,inactive: -10.8%

row,SMILES,"activity change, positive = activation"
1,CCc1nnc2c3ccccc3nc(N3CCN(c4ccc(C)cc4C)CC3)n12,inactive: -12.6%
2,O=C(NCCc1csc(-c2cccnc2)n1)c1cccc(C(F)(F)F)c1,inactive: -38.8%
3,Cc1cc(C)c(NC(=O)CN(CC(=O)O)CC(=O)O)c(C)c1Br,inactive: -5.34%
4,COc1ccccc1CNC(=O)c1ccc(C)c(-n2cnc3cccnc32)c1,inactive: 1.88%
5,CCOc1ccccc1NC(=O)Cn1c(=O)n(CCC(C)C)c(=O)c2cccnc21,inactive: -12.2%
6,Cc1nc2ccccc2n1CCc1nc2c3ccccc3nc(SCc3cccc(F)c3)n2n1,inactive: -8.03%
7,Cc1cc(C)cc(OCCn2c(C3CC(=O)N(c4ccccc4Cl)C3)nc3ccccc32)c1 (stereo not drawn),inactive: -39.7%
8,CC1=C(C(=O)Nc2ccccc2)C(c2ccccc2C)n2ncc(C(=O)Nc3ccccc3)c2N1 (stereo not drawn),inactive: -12.2%
9,Cc1ccc2c(=O)c(C(=O)c3ccccc3)cn(CC(=O)Nc3ccc4c(c3)OCCO4)c2n1,inactive: -0.538%
10,COc1ccc(CCNC(=O)CCn2c(=O)c3ccccc3n(CC(=O)Nc3ccccc3F)c2=O)cc1OC,inactive: -20.3%
11,Cn1c(=O)c2sccc2n2c(CCC(=O)NCc3ccc(F)cc3)nnc12,inactive: -4.4%
12,CCOC(=O)c1cc(S(=O)(=O)Nc2ccc(Br)c(C)c2)[nH]n1,inactive: -18.3%
13,COc1cc(C2c3c(oc4cc(C)c(C)cc4c3=O)C(=O)N2CCCN2CCOCC2)ccc1O (stereo not drawn),inactive: -3.88%
14,CC(O)COc1ccccc1 (stereo not drawn),inactive: -2.07%
15,Cc1ccc2c(c1)c1c(c(=O)n(-c3cccc(Cl)c3)c(=O)n1CC(=O)N1CCCC1)n2C,inactive: -10.2%
16,Cc1c(C(=O)N2CCC(c3nc4ccccc4s3)CC2)oc2cc(Br)ccc12,"inactive: 16.6% [at 11.5 µM, percent change from vehicle, -100% = no light]"
17,CCCNC(=O)c1cc2nc(-c3ccc(Br)cc3)cc(C(F)(F)F)n2n1,inactive: -8.51%
18,CCOc1ccc(-n2c(SCc3nc(-c4ccc(OC)cc4)no3)nnc2-c2ccncc2)cc1,inactive: -17.6%
19,COc1ccc(Br)cc1CNC(=O)c1cc(=O)[nH]c2ccc(S(=O)(=O)N3CCCC3)cc12,inactive: -16.4%
20,CCOc1cccc2cc(-c3nc4sc5c(c4c(=O)[nH]3)CCC(C(C)(C)C)C5)c(=O)oc12 (stereo not drawn),inactive: 1.29%

row,SMILES,"activity change, positive = activation"
1,CC(C)Cc1ccc(C(C)C(=O)OCc2ccccn2)cc1 (stereo not drawn),inactive: -9.7%
2,CCc1nnc(NC(=O)c2nc(S(=O)(=O)Cc3cccc(C)c3)ncc2Cl)s1,inactive: -86.4%
3,Cn1c(CN2CCCCC2)nc2cc(NC(=O)c3cccc(Br)c3)ccc21,inactive: 6.11%
4,NC(=O)CSc1oc(-c2ccco2)nc1S(=O)(=O)c1ccc(Br)cc1,inactive: 7.47%
5,CCCCn1cc(S(=O)(=O)c2ccc(C)c(C)c2)c(=O)c2cc(F)c(N3CCN(C)CC3)cc21,inactive: -4.25%
6,O=C(CN1C(=O)CCSc2ccc(S(=O)(=O)N3CCCC3)cc21)Nc1ccccc1,inactive: -5.07%
7,CCC(C(=O)Nc1ccccc1C(=O)OC)n1c(C)c2cnn(-c3ccccc3)c(=O)c2c1C (stereo not drawn),inactive: -21.7%
8,CCC(Oc1ccccc1)C(=O)Nc1ccc(O)c(-c2nc3cc(C)ccc3o2)c1 (stereo not drawn),inactive: 0.328%
9,COc1cccc(NC(=O)CCS(=O)(=O)c2ccc3c(c2)oc(=O)n3C)c1,inactive: -2.24%
10,COc1ccc(NC(=O)Cn2c(=O)n(CCCC(=O)NCc3ccccc3OC)c(=O)c3ccccc32)cc1Cl,inactive: -30.2%
11,Cn1c(NCCCCO)nc2c1c(=O)n(Cc1ccc(Cl)cc1)c(=O)n2C,inactive: 20.1%
12,O=C(Cn1cc(S(=O)(=O)Cc2ccccc2Cl)c2ccccc21)NCc1ccccc1Cl,inactive: -34.9%
13,O=C1c2oc3ccccc3c(=O)c2C(c2ccc(Br)cc2)N1c1ccccn1 (stereo not drawn),inactive: -13.2%
14,COc1ccc(Cn2c(C(=O)O)c(CNCc3cccc(OC)c3)c3ccc(C)cc32)cc1,inactive: -54.6%
15,CCCCN(CC)CCNC(=O)Cn1cnc2sc(C)c(S(=O)(=O)N3CCC(C)CC3)c2c1=O,inactive: 9.08%
16,CCOc1ccc(NC(=O)CC2C(=O)N(c3ccccc3)C(=O)N2CCc2ccc(OC)cc2)cc1 (stereo not drawn),inactive: 3.57%
17,Cn1c(=O)oc2cc(S(=O)(=O)N3CCC(C(=O)NCc4ccccc4Cl)CC3)ccc21,inactive: -15.8%
18,Cc1ccc(NC(=O)Cn2nc(C)c3nn(-c4ccc(Cl)cc4)c(C)c3c2=O)cc1C,inactive: -28.3%
